{"source": "PubChem BioAssay AID686979", "about": "(National Center for Advancing Translational Sciences (NCATS), 2013)", "note": "About 50,000 (12%) of roughly 420,000 compounds were called active. The inconclusive results got no clear call from the source; some entries with a clear call stand among them for comparison. Calls follow the shape of the dose curve; as a rule, active = well fitted inhibition curve with a large enough effect; inconclusive = small, poorly fitted or top-dose-only effect; inactive = flat fitted curve, though single readings scatter. Potencies of inconclusive entries are left out as doubtful fits. % is scaled to controls: 0 for no effect and ±100 for the full control effect; potency is read from the fitted curve at half-maximal effect; tags tell the direction and shape of the fitted curve.", "data": [{"assay": "qHTS for Inhibitors of human tyrosyl-DNA phosphodiesterase 1 (TDP1): qHTS in cells in presence of CPT; also: nearly all actives have a fitted effect of over 55% in size", "settings": "chicken DT40 Tdp1-/-;hTDP1 cells + 20 nM CPT, ATP luminescence, 48 h; activity change, negative = growth inhibition: at 46.2 µM (top of the series)", "how_it_was_run": "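Cell growth measured by CellTiter-Glo luminescence after a minimum 48 h, 37 C compound exposure with 20 nM CPT in Tdp1-knockout DT40 cells stably expressing hTDP1, seeded 400/well; qHTS titration format.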", "values": [{"compound": "CCn1ccnc1CNC(=O)c1ccc2oc(CCCc3ccccc3)nc2c1", "Potency": "inconclusive [inhibitor, single point]"}, {"compound": "Cc1cc(NS(=O)(=O)c2ccc(NC(=O)c3c(F)c(F)c(F)c(F)c3F)cc2)nc(C)n1", "activity change, negative = growth inhibition": "inactive: 1.5%"}, {"compound": "Cc1ccc2c(C(=O)CSc3ccccc3)c(C)[nH]c2c1", "Potency": "inconclusive [inhibitor, single point]"}, {"compound": "CCN(CC)S(=O)(=O)c1ccc(N2CCCCC2)c(NC(=O)/C=C/c2ccc(OC)c(OC)c2)c1", "Potency": "inconclusive [inhibitor, single point]"}, {"compound": "CCOC(=O)c1c(C)[nH]c(C(=O)N/N=C\\c2ccccc2Cl)c1C", "Potency": "active: 16.4 µM"}, {"compound": "CCN(CC)C(=O)CSc1nc(N)c2c3c(sc2n1)CC(C)CC3", "note": "(stereo not given)", "Potency": "inconclusive [inhibitor, single point]"}, {"compound": "CCCCOc1[nH]c2nc(-c3ccco3)n(Cc3ccco3)c(=N)c2c1C#N", "Potency": "inconclusive [inhibitor, partial curve]"}, {"compound": "COc1ccccc1-c1sc2cc3c(cc2c1C#CCO)OCO3", "Potency": "inconclusive [inhibitor, single point]"}, {"compound": "O=C(CN1C(=O)C2CC=CCC2C1=O)Nc1ccc(OC(F)(F)F)cc1", "note": "(stereo not given)", "Potency": "inconclusive [inhibitor, single point]"}, {"compound": "COc1cccc(N2CCN(C(=O)C(CCSC)NS(=O)(=O)c3ccc4c(c3)oc(=O)n4C)CC2)c1", "note": "(stereo not given)", "activity change, negative = growth inhibition": "inactive: -21.6%"}, {"compound": "CCc1ccc(CNC(=O)Cc2ccc(NC(=O)N3CCSc4ncccc43)cc2)cc1", "Potency": "active: 25.9 µM"}, {"compound": "CN(Cc1c(F)cccc1Cl)C(=O)c1ccc2ccccc2n1", "Potency": "inconclusive [inhibitor, single point]"}, {"compound": "C=CCn1c(SCC(=O)Nc2c(C)n(C)n(-c3ccccc3)c2=O)nc2scc(-c3ccccc3)c2c1=O", "Potency": "inconclusive [inhibitor, single point]"}, {"compound": "NS(=O)(=O)c1ccc(CCNS(=O)(=O)c2ccc(Cl)cc2)cc1", "activity change, negative = growth inhibition": "inactive: -12.8%"}, {"compound": "CC(C)CCN1CC(=O)N2[C@@H](Cc3c([nH]c4ccccc34)C2(C)C)C1=O", "Potency": "inconclusive [inhibitor, single point]"}, {"compound": "CCn1c2ccccc2c2cc(CN3CCN(C(=O)c4ccco4)CC3)ccc21", "Potency": "inconclusive [inhibitor, single point]"}, {"compound": "CSc1ccc(C2=CC(=O)C[C@H](c3ccc(Cl)cc3)C2)cc1", "Potency": "inconclusive [inhibitor, single point]"}, {"compound": "OC1CN=C2C=CC=CN2C1", "note": "(stereo not given)", "activity change, negative = growth inhibition": "inactive: -3.76%"}, {"compound": "COCCn1c(SCC(=O)Nc2ccc(OC)cc2OC)nc2ccccc2c1=O", "activity change, negative = growth inhibition": "inactive: -17.9%"}, {"compound": "CCOC(=O)C1=C(c2ccccc2)N=C2SCC(=O)N2C1c1ccc(OC)c(OC)c1", "note": "(stereo not given)", "Potency": "inconclusive [inhibitor, single point]"}, {"compound": "C/C=C/Cn1c(Br)nc2c1c(=O)n(C)c(=O)n2C", "Potency": "inconclusive [inhibitor, single point]"}, {"compound": "OC(c1ccccc1)(c1nc(-c2ccc(F)c(Cl)c2)cs1)C(F)(F)F", "note": "(stereo not given)", "Potency": "inconclusive [inhibitor, single point]"}, {"compound": "CCN(CC)S(=O)(=O)c1cccc(S(=O)(=O)c2cccc(S(=O)(=O)N(CC)CC)c2)c1", "Potency": "active: 20.6 µM"}, {"compound": "C/C(=N/NS(=O)(=O)c1ccc(C(C)C)cc1)c1ccncc1", "activity change, negative = growth inhibition": "inactive: -23.7%"}, {"compound": "Cn1cc([N+](=O)[O-])c(C(=O)Nc2ccc3nc(-c4ccccc4)[nH]c3c2)n1", "Potency": "inconclusive [inhibitor, single point]"}, {"compound": "Oc1ccc(NCc2cccc(OCc3ccccc3)c2)cc1", "Potency": "active: 14.6 µM"}, {"compound": "S=c1c2c(nc3nc[nH]n13)CCC2", "Potency": "inconclusive [inhibitor, single point]"}, {"compound": "CCC(=O)c1ccc(OCC(=O)N2CCN(c3ccccn3)CC2)cc1", "activity change, negative = growth inhibition": "inactive: -24.5%"}, {"compound": "O=S1(=O)c2c(Oc3cccc4ccccc34)cccc2OC(COCc2ccccc2)CN1C1CCCC1", "note": "(stereo not given)", "Potency": "active: 6.51 µM"}, {"compound": "O=[N+]([O-])c1ccc(N2CCN(c3ccccc3F)CC2)nc1", "activity change, negative = growth inhibition": "inactive: 7.89%"}, {"compound": "Cc1cc2c(cc1S(=O)(=O)NCc1ccccc1Cl)OCCN2C", "Potency": "inconclusive [inhibitor, single point]"}, {"compound": "O=C(NCCCn1ccnc1)C1c2ccccc2Oc2ccccc21", "activity change, negative = growth inhibition": "inactive: 1.73%"}, {"compound": "Cc1ccccc1-c1nc(CS(=O)(=O)CC(=O)N(C)C2CCCCC2)c(C)o1", "Potency": "inconclusive [inhibitor, partial curve]"}, {"compound": "CCN(CC)c1nn2c(=O)c(C(=O)NCCc3ccccc3)cnc2s1", "Potency": "inconclusive [inhibitor, single point]"}, {"compound": "Cc1ccc(C)c(NC(=O)c2ccc3c(O)c(S(=O)(=O)c4ccc(Cl)cc4)c(=O)[nH]c3c2)c1", "activity change, negative = growth inhibition": "inactive: 9.86%"}, {"compound": "COc1ccc(-c2cn(CCC(=O)O)c(C)n2)cc1", "activity change, negative = growth inhibition": "inactive: -16.8%"}, {"compound": "COC(=O)c1ccc(Oc2coc3cc(OCc4cnn(-c5ccccc5)c4)ccc3c2=O)cc1", "Potency": "inconclusive [inhibitor, partial curve]"}, {"compound": "O=C(NCC(c1cccnc1)N1CCN(c2ccccc2F)CC1)c1cccc(Cl)c1", "note": "(stereo not given)", "Potency": "active: 20.6 µM"}, {"compound": "O=C1C=C(c2ccc(Oc3ccccc3)cc2)C[C@@H](c2ccc3c(c2)OCO3)C1", "Potency": "inconclusive [inhibitor, single point]"}, {"compound": "CCOC(=O)C1=CN(Cc2cccc(F)c2)S(=O)(=O)N(CC)C1c1ccc(C(F)(F)F)cc1", "note": "(stereo not given)", "Potency": "active: 20.6 µM"}, {"compound": "O=C(c1cnn2ccccc12)N1CCCc2ccccc21", "Potency": "inconclusive [inhibitor, single point]"}, {"compound": "Cc1coc(C)c1C(=O)CC1(O)C(=O)Nc2cc(Cl)cc(Cl)c21", "note": "(stereo not given)", "activity change, negative = growth inhibition": "inactive: -15.5%"}, {"compound": "Cc1ccc(S(=O)(=O)N2CCN(S(=O)(=O)N(C)C)CC2)c(C)c1", "activity change, negative = growth inhibition": "inactive: -7.59%"}, {"compound": "O=C1CN(c2nc(-c3cccnc3)nc3sc4c(c23)CCCC4)CCN1", "Potency": "inconclusive [inhibitor, single point]"}, {"compound": "Cc1ccc(C)c(OCCC(=O)N2CCN(S(=O)(=O)c3ccc([N+](=O)[O-])cc3)CC2)c1", "Potency": "inconclusive [inhibitor, single point]"}]}]}
